# The supplement of paper PMC7826260
# This is one part of the list. Each Rep nickase domain was tested in vitro on the same pool of single strands for 1 h at 37 °C with 3 µM enzyme; only the middle of the 90-letter strands is printed. Numbers give uncut DNA relative to the enzyme-free pool, as log2; the lower, the more was cut; hits are not called. Reads are scaled to the total, so uncut sequences can rise above 0 when many others are cut.
# Legend:
# Experiment in all cases: uncleaved DNA left, log2 of reads against the no-enzyme library (log2 ratio); higher = less cleavage (more negative = more Rep cleavage of the k-mer); sequences stand for … in CTCGTCCG…ACCGGAGA
# [1] = system: T1, Rep nickase domain of Muscovy duck circovirus
# T1 sequence (residues 1-111 of Rep, tag left off): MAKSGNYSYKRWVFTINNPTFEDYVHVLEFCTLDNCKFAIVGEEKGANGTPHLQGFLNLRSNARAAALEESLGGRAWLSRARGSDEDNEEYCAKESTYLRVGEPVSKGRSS
# Method: (§1)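 A pool of 90-nt single-stranded DNAs with seven random bases just before the constant AC of the nick site (name = the seven bases) was cut by 3 µM recombinant His6-SUMO-tagged Rep nickase domain (300 nM DNA, 50 mM HEPES pH 8.0, 50 mM NaCl, 1 mM MnCl2, 1 h, 37 °C, three replicates). Uncut DNA was amplified and sequenced.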
# [2] = system: T2, Rep nickase domain of banana bunchy top virus
# T2 sequence (residues 1-94 of Rep, tag left off): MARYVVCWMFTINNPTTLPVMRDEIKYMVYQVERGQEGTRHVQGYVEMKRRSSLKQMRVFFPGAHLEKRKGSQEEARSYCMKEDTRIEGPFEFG
# Method: as §1
# [3] = system: T3, Rep nickase domain of cabbage leaf curl virus
# T3 sequence (residues 1-116 of Rep, tag left off): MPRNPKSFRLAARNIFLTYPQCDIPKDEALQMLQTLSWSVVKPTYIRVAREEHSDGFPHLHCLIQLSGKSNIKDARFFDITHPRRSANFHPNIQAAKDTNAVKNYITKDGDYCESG
# Method: as §1
# [4] = system: T4, Rep nickase domain of chickpea chlorotic dwarf virus
# T4 sequence (residues 1-124 of Rep, tag left off): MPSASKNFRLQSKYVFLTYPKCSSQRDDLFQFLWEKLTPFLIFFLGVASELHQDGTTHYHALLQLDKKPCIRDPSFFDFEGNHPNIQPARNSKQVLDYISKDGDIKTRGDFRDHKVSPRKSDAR
# Method: as §1
# [5] = system: T5, Rep nickase domain of faba bean necrotic yellows virus
# T5 sequence (residues 1-98 of Rep, tag left off): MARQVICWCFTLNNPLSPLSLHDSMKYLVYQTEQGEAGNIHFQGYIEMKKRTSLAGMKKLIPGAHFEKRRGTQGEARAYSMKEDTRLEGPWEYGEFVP
# Method: as §1
# [6] = system: T6, Rep nickase domain of maize striate mosaic virus
# T6 sequence (residues 1-117 of Rep, tag left off): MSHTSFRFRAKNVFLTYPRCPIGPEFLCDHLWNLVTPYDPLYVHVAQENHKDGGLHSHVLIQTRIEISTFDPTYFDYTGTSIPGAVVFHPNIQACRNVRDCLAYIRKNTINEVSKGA
# Method: as §1
# [7] = system: T7, Rep nickase domain of porcine circovirus 2
# T7 sequence (residues 2-116 of Rep, tag left off): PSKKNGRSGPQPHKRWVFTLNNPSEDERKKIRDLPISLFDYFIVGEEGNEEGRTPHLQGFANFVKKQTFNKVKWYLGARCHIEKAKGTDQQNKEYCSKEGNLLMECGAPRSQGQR
# Method: as §1
# [8] = system: T8, Rep nickase domain of tomato golden mosaic virus
# T8 sequence (residues 1-124 of Rep, tag left off): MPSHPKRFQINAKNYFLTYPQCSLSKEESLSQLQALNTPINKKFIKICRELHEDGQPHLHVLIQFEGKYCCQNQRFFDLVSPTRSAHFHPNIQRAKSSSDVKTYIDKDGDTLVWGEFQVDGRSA
# Method: as §1
# [9] = system: T9, Rep nickase domain of tomato yellow leaf curl virus
# T9 sequence (residues 1-136 of Rep, tag left off): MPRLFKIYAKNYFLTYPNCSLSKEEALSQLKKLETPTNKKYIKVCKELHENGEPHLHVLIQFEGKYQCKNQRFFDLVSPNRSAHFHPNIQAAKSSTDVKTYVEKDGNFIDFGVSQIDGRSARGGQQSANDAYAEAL
# Method: as §1
# [10] = system: T10, Rep nickase domain of wheat dwarf virus
# T10 sequence (residues 1-137 of Rep, tag left off): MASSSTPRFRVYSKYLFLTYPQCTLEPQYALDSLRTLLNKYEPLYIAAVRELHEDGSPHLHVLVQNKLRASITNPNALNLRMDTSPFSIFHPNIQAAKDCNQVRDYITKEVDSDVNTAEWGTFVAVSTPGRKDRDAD
# Method: as §1
Sequence,uncleaved DNA left (log2) [1],uncleaved DNA left (log2) [2],uncleaved DNA left (log2) [3],uncleaved DNA left (log2) [4],uncleaved DNA left (log2) [5],uncleaved DNA left (log2) [6],uncleaved DNA left (log2) [7],uncleaved DNA left (log2) [8],uncleaved DNA left (log2) [9],uncleaved DNA left (log2) [10]
CAGTTCT,-2.4,-3.49,-1.11,-3.34,-3.13,-0.863,-3.85,-0.364,-0.0744,-0.273
CGACCAC,-0.0835,0.0137,0.12,0.393,0.0271,0.293,-0.0516,-0.0958,0.059,0.013
CATGAGC,0.0618,0.051,-0.618,-0.614,-0.0189,-1.11,0.145,0.00629,0.0643,-0.0858
GCCCCGG,-0.153,-0.0845,0.38,1.16,-0.0619,1.71,0.0337,0.0991,-0.192,-0.124
GTGTGAA,-0.0154,0.0671,0.352,0.932,-0.0661,1.66,0.0411,0.146,0.0908,0.118
TGACCCG,0.124,0.108,-0.149,0.199,0.143,-0.543,0.011,0.0334,0.0661,0.0756
ACTTCTG,-0.0103,0.000239,-0.484,-0.128,0.0453,-0.817,0.218,0.022,-0.0333,-0.0126
TAACACC,0.0366,0.0166,-1.89,-2.64,0.0401,-0.47,-0.134,-0.0609,-0.0657,-0.229
AAGCCAC,-0.0134,0.0284,-0.0463,-0.558,-0.00716,-0.293,-0.0169,-0.0512,-0.0326,0.036
AAAAGTC,0.0988,0.159,-0.954,-1.02,0.133,-0.855,0.161,0.0236,0.0389,-0.0813
TCGGGTC,-0.0361,0.00717,0.411,0.704,0.00267,1.23,-0.024,-0.0657,-0.024,0.0772
CGGGCTA,0.0825,0.0332,0.555,1.2,0.0707,1.82,0.163,0.0538,-0.0186,0.0849
CATTCCC,-0.15,-0.397,0.0996,-0.2,0.0454,-0.449,-0.695,-0.059,0.0247,0.0869
CATCTAG,0.0464,0.113,-0.625,-0.3,0.0296,-1.14,0.206,0.0869,0.0941,-0.0247
TCTGCTA,0.0793,0.053,-0.0312,-0.935,0.108,-0.792,-0.0292,-0.0116,0.0795,0.0445
GCGCAAA,-0.00444,0.137,0.124,0.625,-0.0799,0.359,0.0594,0.0358,0.0789,0.0983
CAAGGGT,0.114,0.0429,0.259,1.53,0.0567,1.88,0.198,0.0482,-0.125,0.117
GCTCGAC,0.0416,-0.0785,0.102,0.486,0.00418,0.29,-0.0272,-0.0429,-0.0289,-0.0411
TCGCGGA,0.0815,-0.0547,0.0214,-0.0822,0.0501,-0.421,-0.0391,0.195,0.0518,0.0147
ACTCTTG,-0.0102,-0.211,-0.735,-1.37,-0.113,-1.13,-0.0327,-0.054,-0.129,-0.0544
CACCTCT,0.00707,-0.00105,-0.465,-2.54,0.0116,-0.586,-0.67,0.0255,0.00533,-0.142
GCATCCC,0.021,-0.0273,0.000706,0.379,-0.063,0.255,-0.000208,-0.0775,0.0443,0.00838
TCCCAGT,0.0795,0.0244,0.142,-0.481,0.0446,-0.626,0.116,-0.0525,0.0394,-0.0434
ATCCGTG,0.0158,0.0532,-0.449,-0.433,-0.0811,-1.19,0.25,0.0276,0.0364,-0.0152
AACTCTT,-3.13,-3.06,-0.979,-3.02,-0.316,-0.482,-3.56,-0.151,-0.117,-0.213
ATCATCT,-0.039,-0.00227,-0.202,-2.27,-0.00672,-0.91,-0.233,0.0552,0.0519,-0.0105
GGAATGG,0.116,0.0691,0.406,0.91,0.0761,0.67,0.136,0.0655,0.0754,0.11
ATTTTAC,-1.28,0.0831,-0.355,-2.43,0.111,-0.869,-0.656,0.00176,0.0226,0.0822
ACGTGGA,0.0327,0.0049,-0.239,-0.257,-0.0787,-0.605,-0.0871,0.00909,-0.199,-0.0807
GTCCGTC,0.0364,0.0263,0.283,0.708,-0.0105,1.29,0.0189,-0.0678,0.0314,0.0903
